# From PubChem BioAssay AID881 (National Center for Advancing Translational Sciences (NCATS), 2007)
# In all, about 110,000 compounds went through this assay and about 610 (0.55%) were called active. This list was built around the results that the source calls inconclusive (neither active nor inactive); the mix of calls is not that of the screen. The call rests on the fitted dose curve; in most records, active means well fitted inhibition curve with a large enough effect; inconclusive means small, poorly fitted or top-dose-only effect; inactive means no such curve, though single readings can be large or run the other way. Potencies of inconclusive entries are doubtful fits and often do not repeat.
# Target: Polyunsaturated fatty acid lipoxygenase ALOX15B (Homo sapiens) (UniProt O15296)
# Sequence of UniProt O15296 (O15296 whole entry, looked up): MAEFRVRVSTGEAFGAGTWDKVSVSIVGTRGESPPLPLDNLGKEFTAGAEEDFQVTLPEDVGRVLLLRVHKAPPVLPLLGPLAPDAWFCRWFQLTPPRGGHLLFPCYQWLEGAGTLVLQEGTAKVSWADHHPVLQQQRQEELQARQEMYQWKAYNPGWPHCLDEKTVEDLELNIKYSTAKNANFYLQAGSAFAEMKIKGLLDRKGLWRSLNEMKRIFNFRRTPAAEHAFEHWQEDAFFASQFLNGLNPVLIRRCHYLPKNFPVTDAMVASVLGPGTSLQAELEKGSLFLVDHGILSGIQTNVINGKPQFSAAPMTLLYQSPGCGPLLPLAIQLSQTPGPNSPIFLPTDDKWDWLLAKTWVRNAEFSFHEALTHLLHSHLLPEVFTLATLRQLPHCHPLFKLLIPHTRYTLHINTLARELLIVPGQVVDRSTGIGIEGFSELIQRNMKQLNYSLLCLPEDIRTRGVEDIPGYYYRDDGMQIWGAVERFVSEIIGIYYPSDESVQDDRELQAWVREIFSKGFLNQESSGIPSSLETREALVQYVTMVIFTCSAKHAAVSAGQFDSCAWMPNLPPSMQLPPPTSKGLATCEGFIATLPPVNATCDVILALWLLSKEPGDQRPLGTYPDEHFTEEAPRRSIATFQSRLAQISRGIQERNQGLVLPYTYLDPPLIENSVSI
# Assay: qHTS Assay for Inhibitors of 15-hLO-2 (15-human lipoxygenase 2); further: nearly all actives have a fitted effect of over 60% in size
# Conditions: purified 15hLO-2, xylenol orange hydroperoxide absorbance; activity change, negative = inhibition: at 57.1 µM (top of the series) unless noted
# How it was run: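 Purified human 15hLO-2 (50 nM final) preincubated with compounds 15 min at room temperature in 25 mM Hepes pH 7.5, 0.01% Triton X-100, then 45 uM arachidonic acid added for 90 min; hydroperoxide detected via ferrous/xylenol orange, 573/405 nm absorbance ratio.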
# On the % scale 0 is the no-effect control and ±100 the full control effect; potency means the concentration at half of the fitted maximal effect; tags describe the fitted curve by direction and shape.
SMILES,Potency,"activity change, negative = inhibition"
CC(C)OC(=O)CSc1nc(N)c(C#N)c(-c2ccco2)c1C#N,"inconclusive: 15.8 µM [inhibitor, partial curve]",
Cc1ccc(O)c(C2=NOC(O)(C(F)(F)C(F)F)C2)c1 (stereo not drawn),inactive,
O=c1c(-c2cccs2)nc2cnc(N3CCOCC3)nc2n1CCc1ccccc1,inactive,
Cc1cccc(NC(=S)NNC(=O)c2csc3c2CCCC3)c1,"inconclusive: 25.1 µM [inhibitor, single point]",
CCc1cc(-c2n[nH]c(=S)n2Cc2ccccc2)cs1,"inconclusive: 10 µM [inhibitor, partial curve]",
CC1(C)Cc2c(C#N)c(OCC(=O)c3ccccc3)nc(-c3ccoc3)c2CO1,"inconclusive: 12.6 µM [inhibitor, partial curve]",
OCCN(CCO)c1ncnc2nc[nH]c12,,inactive: -2.01% [at 11.4 µM]
COCCNC(=O)CSc1ncnc2sccc12,inactive,
COc1ccccc1C1CN(c2ccccc2)N=C1c1cccs1 (stereo not drawn),"inconclusive: 31.6 µM [inhibitor, single point]",
COc1cccc2c1[C@H](CO)N1[C@H](C#N)[C@@H]3C[C@H](C(=O)O)[C@@H]([C@@H]1C2)N3C,,inactive: -1.68% [at 11.4 µM]
COc1cccc(OCC(=O)NN=C2c3ccccc3-c3ccccc32)c1,"inconclusive: 25.1 µM [inhibitor, single point]",
Cc1sc2ncn(CC(=O)N(CC(=O)NC3CCCC3)Cc3cccs3)c(=O)c2c1C,"inconclusive: 31.6 µM [inhibitor, single point]",
CCN1C(=S)SC(=O)C1=C1C=C(C)N(CCO)C(C)=C1,"inconclusive: 15.8 µM [inhibitor, partial curve]",
Oc1cc(Cc2ccccc2)cnc1CN1CCCCC1,inactive,
Cc1cccc2c1N(CCCOc1ccc(C(C)(C)C)cc1)C(=O)C2=O,"inconclusive: 12.6 µM [inhibitor, partial curve]",
CCCOc1ccc(Cc2nn3c(=O)/c(=C/c4ccco4)sc3nc2=O)cc1,"inconclusive: 10 µM [inhibitor, partial curve]",
CC1(C)CC(O)C(C)(C)N1O (stereo not drawn),"inconclusive: 12.6 µM [inhibitor, partial curve]",
Cc1ccc(C(=O)Nc2sc3c(c2C(=O)NCc2ccco2)CCCC3)cc1,"inconclusive: 12.6 µM [inhibitor, partial curve]",
N=C1[C@@H](O)[C@]2(I)c3ccccc3N3C(=N)[C@H](O)[C@@H]4c5ccccc5N1[C@@H]4[C@@H]32,"inconclusive: 5.01 µM [inhibitor, single point]",
O=C(c1ccncc1)N1CCC2(CCCN(c3cccc(-c4ccccc4)c3)C2)CC1,inactive,
N=c1cc(C2(O)CCCCC2)n2c(nc3ccccc32)s1,"inconclusive: 12.6 µM [inhibitor, partial curve]",
Fc1ccccc1NC(=S)NN(Cc1ccccc1)c1ccccc1,"inconclusive: 20 µM [inhibitor, partial curve]",
S=C([S-])NCCNC(=S)[S-].[Zn+2],"inconclusive: 15.8 µM [inhibitor, partial curve]",

SMILES,Potency,"activity change, negative = inhibition"
Cc1cc(C)c(S(=O)(=O)NCC23C=CC(O2)C2C(=O)N(c4ccccc4)C(=O)C23)c(C)c1 (stereo not drawn),"inconclusive: 0.631 µM [inhibitor, full curve]",
Cc1ccc(N2C(=O)/C(=C\c3ccco3)SC2=S)cc1,"inconclusive: 20 µM [inhibitor, partial curve]",
O=C1c2ccccc2C2=Nc3ccccc3SC(c3ccccc3F)C12 (stereo not drawn),"inconclusive: 15.8 µM [inhibitor, partial curve]",
COc1ccccc1-n1c(SCC(N)=O)nc2c(c1=O)SCC2,inactive,
COc1ccc(-n2nnnc2SCC(=O)Nc2ccc3c(c2)OCCO3)cc1OC,"inconclusive: 39.8 µM [inhibitor, single point]",
Clc1cccc(N/N=C/c2ccc(N3CCOCC3)cc2)c1,"inconclusive: 7.94 µM [inhibitor, partial curve]",
COc1ccc(CNc2ccnc(-c3cccnc3)n2)c(OC)c1,inactive,
COC(=O)c1ccc(OCC2c3cc(OC)c(OC)cc3CCN2C(=O)c2ccco2)cc1 (stereo not drawn),inactive,
Cc1ccc(C)c(NS(=O)(=O)c2cc(C(=O)NCCSC3CCCCC3)ccc2C)c1,"inconclusive: 39.8 µM [inhibitor, single point]",
CC(C)(C)C1CCC2(CC1)C(C#N)=C(SCC(=O)Nc1ccccc1)NC(=O)C2C#N (stereo not drawn),inactive,
O=C(NC(=S)Nc1ncc(Br)cc1Br)c1cncc(Br)c1,"inconclusive: 31.6 µM [inhibitor, single point]",
COc1cc(C2C(C(=O)c3ccc(C)o3)=C(O)C(=O)N2c2cc(C)on2)cc(Br)c1O (stereo not drawn),"inconclusive: 39.8 µM [inhibitor, single point]",
Cc1nonc1OC(C)CNc1ccc([N+](=O)[O-])cc1 (stereo not drawn),"inconclusive: 25.1 µM [inhibitor, single point]",
CC(N)C12CC3CC(C1)CC(C(C)N)(C3)C2 (stereo not drawn),"inconclusive: 1.58 µM [inhibitor, single point]",
O=C(O)/C=C/C(=O)Nc1ccccc1-c1ccccc1,"inconclusive: 12.6 µM [inhibitor, partial curve]",
O=C1C2=C(Nc3ccccc3SC2c2ccco2)c2ccccc21 (stereo not drawn),"inconclusive: 31.6 µM [inhibitor, single point]",
Cc1ccc(C(=O)[C@@H]2[C@H]3C4COC(O4)C(=O)[C@@H]3[C@H]3C=Cc4ccccc4N32)cc1 (stereo partly drawn),"inconclusive: 20 µM [inhibitor, partial curve, poor fit]",
COC(=O)c1c(NC(=O)c2ccco2)sc(C(=O)Nc2ccc(F)cc2)c1C,inactive,
Cc1cccc(COc2ccccc2/C=N/Nc2ccc([N+](=O)[O-])cc2)c1,"inconclusive: 12.6 µM [inhibitor, partial curve]",
O=C(CSc1nc2ccccc2c2nc3ccccc3n12)NCc1ccco1,"inconclusive: 12.6 µM [inhibitor, partial curve]",
CN(C)c1ccc(N=Nc2cccc3ccoc23)cc1,,inactive: -1.39% [at 11.4 µM]
COCCn1c(=O)c(-c2ccc(Cl)cc2)nc2cnc(N(C)C)nc21,inactive,
COc1cc(NC(=O)c2ccc3c(=O)n(Cc4ccco4)c(=S)[nH]c3c2)cc(OC)c1OC,"inconclusive: 39.8 µM [inhibitor, single point]",

SMILES,Potency,"activity change, negative = inhibition"
C[C@@]12C[C@H](O)[C@@H]3[C@H](CCC4=CC(=O)CC[C@]43C)[C@H]1CC[C@@H]2c1csc(N)n1,,inactive: -3.16% [at 11.4 µM]
CC(C)C(=O)Nc1cccc(NC(=S)NC(=O)C(c2ccccc2)c2ccccc2)c1,"inconclusive: 12.6 µM [inhibitor, partial curve]",
O=c1oc2ccccc2c(Nc2ccc3ccccc3c2)c1[N+](=O)[O-],"inconclusive: 25.1 µM [inhibitor, partial curve]",
COc1ccc(N/N=C(/C#N)S(=O)(=O)c2nsc(C)c2C#N)cc1,"inconclusive: 15.8 µM [inhibitor, partial curve]",
NC(=O)C1CCN(C(=O)CN2C(=O)c3ccccc3S2(=O)=O)CC1,"inconclusive: 0.158 µM [inhibitor, full curve]",
Cc1ccc(S(=O)(=O)C/N=C(/NC(=S)N(c2ccccc2)c2ccccc2)c2ccccc2)cc1,"inconclusive: 15.8 µM [inhibitor, partial curve]",
COc1ccc2[nH]c(=O)c(CN(CCc3ccccc3)C(C)=O)cc2c1,"inconclusive: 0.316 µM [inhibitor, full curve, poor fit]",
COc1cc(O)c(C(=O)/C=C/c2ccc(O)c(OC)c2)c(OC)c1,"inconclusive: 10 µM [inhibitor, partial curve]",
COc1cccc(-c2csc(N3CCN(C(=S)Nc4ccc(Cl)cc4)CC3)n2)c1,"inconclusive: 15.8 µM [inhibitor, partial curve]",
Cc1ccc2nc(NC(=O)c3cccc(-c4cc5ccccc5oc4=O)c3)sc2c1,"inconclusive: 20 µM [inhibitor, single point]",
COc1ccccc1CN1CC[C@@]2(CCCN(C(=O)c3cnccn3)C2)C1,inactive,
Cc1nc(C)c(C(=O)N/N=C/c2cn(C)c3ccccc23)s1,inactive,
Cc1cccc(/C(N)=N/OC(=O)CCCN2C(=O)c3ccccc3C2=O)c1,inactive,
COCCNc1ccnc(-c2ccccc2C)n1,"inconclusive: 25.1 µM [inhibitor, single point]",
CCOc1ccc2noc3c2c1C(=O)c1ccccc1-3,inactive,
O=C(COC(=O)c1cccc(S(=O)(=O)N2CCc3ccccc3C2)c1)NCc1ccco1,"inconclusive: 31.6 µM [inhibitor, single point]",
O=C(NCc1ccco1)c1cc2cc3ccc(Cl)cc3nc2o1,"inconclusive: 39.8 µM [inhibitor, single point]",
Cc1cccc(NC(=O)CC(C)(C)C)c1,inactive,
C/C(=N/NC(=O)c1cccs1)c1ccc(NC(=O)COc2ccc(Cl)cc2Cl)cc1,"inconclusive: 25.1 µM [inhibitor, single point]",
Oc1ccc(N2CCN(C(c3cccs3)c3nnnn3CCc3ccccc3)CC2)cc1 (stereo not drawn),"inconclusive: 3.16 µM [inhibitor, partial curve]",
CC1CCC/C(=N\NC(=S)NCc2ccccc2)C1 (stereo not drawn),"inconclusive: 10 µM [inhibitor, partial curve]",
C[N+](C)(C)CCC(=O)c1cccc2ccccc12,"inconclusive: 5.01 µM [inhibitor, partial curve]",
